This note sets out measurements from article PMC4336329 (PLoS ONE, 2015).

The campaign covered roughly 310,000 compounds. About 2,200 (0.71%) showed an effect of 50% or more. Effects have a minus sign here. The list shows a part of the results.

For this assay, the target named is human ether-à-go-go-related gene (hERG) potassium channel (human, UniProt Q12809). The experiment in a line: primary screen, population patch clamp on CHO cells stably expressing hERG.
Chain of human ether-à-go-go-related gene (hERG) potassium channel (Q12809 whole entry, looked up): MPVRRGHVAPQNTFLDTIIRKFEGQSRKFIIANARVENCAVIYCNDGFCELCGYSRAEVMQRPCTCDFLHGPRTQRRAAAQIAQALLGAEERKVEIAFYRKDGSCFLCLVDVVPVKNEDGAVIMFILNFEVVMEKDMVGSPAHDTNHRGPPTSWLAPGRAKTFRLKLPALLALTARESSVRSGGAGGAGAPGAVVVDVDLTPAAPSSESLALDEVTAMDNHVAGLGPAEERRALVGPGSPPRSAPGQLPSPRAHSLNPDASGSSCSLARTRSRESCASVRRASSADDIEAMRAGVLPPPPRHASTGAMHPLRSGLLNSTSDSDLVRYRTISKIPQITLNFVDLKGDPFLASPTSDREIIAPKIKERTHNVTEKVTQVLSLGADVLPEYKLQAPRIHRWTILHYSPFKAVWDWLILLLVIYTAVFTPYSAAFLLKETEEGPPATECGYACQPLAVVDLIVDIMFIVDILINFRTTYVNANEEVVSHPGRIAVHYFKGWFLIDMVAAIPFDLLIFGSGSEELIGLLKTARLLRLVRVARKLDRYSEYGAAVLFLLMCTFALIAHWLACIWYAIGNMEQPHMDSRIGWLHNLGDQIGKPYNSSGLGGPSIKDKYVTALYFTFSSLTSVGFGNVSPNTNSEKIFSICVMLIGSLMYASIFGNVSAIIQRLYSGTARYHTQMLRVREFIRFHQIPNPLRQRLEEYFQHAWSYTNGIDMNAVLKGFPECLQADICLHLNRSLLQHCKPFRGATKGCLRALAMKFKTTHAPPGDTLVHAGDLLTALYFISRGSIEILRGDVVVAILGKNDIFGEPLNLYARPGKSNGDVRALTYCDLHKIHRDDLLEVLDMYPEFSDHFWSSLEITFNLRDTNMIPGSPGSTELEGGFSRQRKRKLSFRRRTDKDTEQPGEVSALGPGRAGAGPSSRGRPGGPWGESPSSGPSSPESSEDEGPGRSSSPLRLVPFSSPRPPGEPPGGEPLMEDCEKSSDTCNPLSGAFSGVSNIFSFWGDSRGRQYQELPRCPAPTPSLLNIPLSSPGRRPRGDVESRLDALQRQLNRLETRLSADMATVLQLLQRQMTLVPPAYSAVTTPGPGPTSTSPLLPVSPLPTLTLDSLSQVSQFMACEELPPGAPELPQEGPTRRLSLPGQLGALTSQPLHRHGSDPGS
For `CCC(=O)Oc1ccc2c(c1)O/C(=C\c1ccco1)C2=O`, the “hERG current change (%, negative = inhibition) at 1uM” value is 12.2%.

On to `COc1ccc2[nH]c(=O)c(CN(Cc3cccnc3)C(=S)NCC3CCCO3)cc2c1` (stereo not drawn), for which the “hERG current change (%, negative = inhibition) at 1uM” value is 13%.

On to `CCOC(=O)C1CCCN(CCc2ccccc2)C1` (stereo not drawn), for which the “hERG current change (%, negative = inhibition) at 1uM” value is 11.2%.

Regarding `COC(=O)N1CCN(C(=O)Cc2ccc(Cl)c(Cl)c2)C(CN2CCCC2)C1.O=C(O)/C=C/C(=O)O` (stereo not drawn), the “hERG current change (%, negative = inhibition) at 1uM” value was -1.42%.

For `CN(CC(=O)O)S(=O)(=O)c1ccc2oc3ccccc3c2c1`, the “hERG current change (%, negative = inhibition) at 1uM” value is 10.5%.

`CNc1nc(-c2cccs2)cc(C(F)(F)F)c1C#N`: the “hERG current change (%, negative = inhibition) at 1uM” value amounted to 9.8%.

With `O=C(NCc1cccnc1)c1ccc(Cn2cc(C(F)(F)F)ccc2=O)cc1`, the “hERG current change (%, negative = inhibition) at 1uM” value worked out at 6.29%.

Take `COc1ncnc2c1oc1nc(C(C)C)c3c(c12)CC(C)(C)OC3`: the “hERG current change (%, negative = inhibition) at 1uM” value is 12.2%.

In the case of `Cc1ccccc1Nc1nc(-c2sc(NC(=O)c3ccccc3)nc2C)cs1`, the “hERG current change (%, negative = inhibition) at 1uM” value is given as 7.9%.

On to `CCN(CC)CCN1C(=O)C(O)=C(C(C)=O)C1c1ccc(OC)c(OC)c1` (stereo not drawn), for which the “hERG current change (%, negative = inhibition) at 1uM” value stood at 4%.

For the molecule `COC(=O)C1=NN[C@H](C(=O)OC)[C@H]1c1ccccc1`, the “hERG current change (%, negative = inhibition) at 1uM” value was determined as 11.3%.

Turning to `Cc1oc(-c2ccc(Cl)cc2)nc1CS(=O)CC(=O)N1CCC2(CC1)OCCO2` (stereo not drawn), the “hERG current change (%, negative = inhibition) at 1uM” value is reported as 4.82%.

Turning to `CCCC(=O)Nc1cc(C(=O)N2CCC3(CC2)OCCO3)ccc1S(=O)(=O)c1ccc(C)cc1`, the “hERG current change (%, negative = inhibition) at 1uM” value was found to be 0.8%.

As for `CCOc1cccc(N(C(=O)C2COc3ccccc3O2)C(C(=O)NC2CCCCC2)c2ccc(O)cc2)c1` (stereo not drawn), the “hERG current change (%, negative = inhibition) at 1uM” value is 9.36%.

`CCCC12CN3CC(C)(CN(C1)C31C(=O)Nc3ccc(C)cc31)C2=O` (stereo not drawn): the “hERG current change (%, negative = inhibition) at 1uM” value was found to be 3.54%.

Turning to `CNC(=S)N1CCN(S(=O)(=O)c2ccc3ccccc3c2)CC1`, the “hERG current change (%, negative = inhibition) at 1uM” value amounted to 2.89%.

As for `O=C(NCCN1C(=O)S/C(=C\c2ccc(Cl)c(Cl)c2)C1=O)c1cnccn1`, the “hERG current change (%, negative = inhibition) at 1uM” value is listed as -0.401%.

Turning to `Cc1cnc(NC(=O)CSc2ncc(-c3ccccc3)n2Cc2ccco2)s1`, the “hERG current change (%, negative = inhibition) at 1uM” value is given as 15.4%.

Take `COc1ccc(-c2nnc(SCc3c(C)noc3C)n2N)cc1OC`: the “hERG current change (%, negative = inhibition) at 1uM” value is reported as 1.35%.

In the case of `CN1CCN(S(=O)(=O)c2cc([N+](=O)[O-])ccc2Cl)CC1`, the “hERG current change (%, negative = inhibition) at 1uM” value came to 8.4%.

For `Cc1ccc(N=Cc2cc(C)n(C3CCCC3)c2C)cc1`, the “hERG current change (%, negative = inhibition) at 1uM” value is 9.1%.

As for `N#Cc1cc([N+](=O)[O-])ccc1Oc1cccc(/C=N/NC(=O)c2ccc(Cl)cc2)c1`, the “hERG current change (%, negative = inhibition) at 1uM” value worked out at 0.885%.

As to `COc1cccc(C2CC(c3cccs3)Nc3ncnn32)c1` (stereo not drawn), the “hERG current change (%, negative = inhibition) at 1uM” value was found to be 3.6%.

As for `Cc1cc(-c2ccccc2)nc(SCc2ccc(C(=O)O)cc2)n1`, the “hERG current change (%, negative = inhibition) at 1uM” value turned out to be 22.3%.

In the case of `CC(O)c1nc2ccc(C(=O)O)cc2[nH]1.Cl` (stereo not drawn), the “hERG current change (%, negative = inhibition) at 1uM” value is on record as 9.69%.

Turning to `Clc1ccc(OCc2cn3ccccc3n2)c2ncccc12`, the “hERG current change (%, negative = inhibition) at 1uM” value is listed as 3.63%.

With `Cc1nnc(SCC(=O)Nc2ccc3c(c2)OCO3)n(N)c1=O`, the “hERG current change (%, negative = inhibition) at 1uM” value is 11.9%.

For the molecule `CC(=O)N1CCc2cc(Br)cc(S(=O)(=O)NCCCN(C)Cc3ccccc3)c21`, the “hERG current change (%, negative = inhibition) at 1uM” value was 4.39%.

Consider `Cc1cc(N/N=C/c2ccccc2O)nc(N2CCOCC2)n1`, for which the “hERG current change (%, negative = inhibition) at 1uM” value is 6.7%.

With `CN1CCN(/C=N/C2=C(C#N)C(c3ccccc3)C3=C(CC(C)(C)CC3=O)O2)CC1` (stereo not drawn), the “hERG current change (%, negative = inhibition) at 1uM” value is reported as -13.4%.

Take `O=C(O)c1cc2ncc(CCO)cn2n1`: the “hERG current change (%, negative = inhibition) at 1uM” value was found to be 17.1%.

Turning to `COc1ccc(NC(=O)CN(C)C(=O)c2cc(-c3ccccc3)nc3ccccc23)cc1`, the “hERG current change (%, negative = inhibition) at 1uM” value amounted to 4.39%.

For `CC(OC(=O)Cc1ccsc1)C(=O)Nc1ccc(Cl)cn1` (stereo not drawn), the “hERG current change (%, negative = inhibition) at 1uM” value is on record as 13.6%.

Take `CCN1CCN(c2cn[nH]c(=O)c2Cl)CC1`: the “hERG current change (%, negative = inhibition) at 1uM” value is given as 11%.

Regarding `COc1cccc(/C=C/C(=O)c2c(O)cc(C)oc2=O)c1O`, the “hERG current change (%, negative = inhibition) at 1uM” value is 11.9%.

As to `COc1ccc(/C=N/NC(=O)CN(C)C(=O)OCc2ccccc2)cc1OC`, the “hERG current change (%, negative = inhibition) at 1uM” value is 15.4%.

`Cc1noc(C)c1COc1ccc(C(=O)NNC(=O)c2ccccc2)cc1`: the “hERG current change (%, negative = inhibition) at 1uM” value was found to be 13%.

Consider `Cc1c(N=C2C(=O)Nc3ccccc32)c(=O)n(-c2ccccc2)n1C`, for which the “hERG current change (%, negative = inhibition) at 1uM” value is given as 17%.

As to `CCOC(=O)C1=C(C)NC(=O)NC1/C=C/c1ccccc1` (stereo not drawn), the “hERG current change (%, negative = inhibition) at 1uM” value was determined as 4.94%.

As to `O=C(O)C1CCC(CNCc2ccncc2)CC1` (stereo not drawn), the “hERG current change (%, negative = inhibition) at 1uM” value turned out to be 16.2%.

For the molecule `O=S(=O)(NN=C1CCCCC1)c1ccccc1`, the “hERG current change (%, negative = inhibition) at 1uM” value is listed as -0.225%.

On to `CC1(C)CC(=O)C(N=Nc2ccc(OC(F)F)cc2)=C(O)C1`, for which the “hERG current change (%, negative = inhibition) at 1uM” value was 3.99%.

Regarding `C=CCc1ccc(OCCOc2cccc(/C=N/n3cnnc3)c2)c(OC)c1`, the “hERG current change (%, negative = inhibition) at 1uM” value is listed as 8.04%.

For the molecule `COc1ccc(COc2ccsc2C(=O)Nc2ccc(Cl)cc2)cc1`, the “hERG current change (%, negative = inhibition) at 1uM” value worked out at 8.49%.

`CCn1c(CC(=O)Nc2ccc(F)cc2)nnc1SCC(=O)N1CCOCC1`: the “hERG current change (%, negative = inhibition) at 1uM” value is listed as 6.23%.
